# Test results reported in PMC4336329 (PLoS ONE, 2015).
# In all, about 310,000 compounds went through this assay and about 2,200 (0.71%) showed an effect of 50% or more. Effects have a minus sign here. This is one part of the list. Where a SMILES comes first, the peptide text is derived from it. The star is where a group is joined. Boc = CC(C)(C)OC(=O)*
# Target: human ether-à-go-go-related gene (hERG) potassium channel (human, UniProt Q12809)
# Experiment: primary screen, population patch clamp on CHO cells stably expressing hERG
# Sequence of human ether-à-go-go-related gene (hERG) potassium channel (Q12809 whole entry, looked up): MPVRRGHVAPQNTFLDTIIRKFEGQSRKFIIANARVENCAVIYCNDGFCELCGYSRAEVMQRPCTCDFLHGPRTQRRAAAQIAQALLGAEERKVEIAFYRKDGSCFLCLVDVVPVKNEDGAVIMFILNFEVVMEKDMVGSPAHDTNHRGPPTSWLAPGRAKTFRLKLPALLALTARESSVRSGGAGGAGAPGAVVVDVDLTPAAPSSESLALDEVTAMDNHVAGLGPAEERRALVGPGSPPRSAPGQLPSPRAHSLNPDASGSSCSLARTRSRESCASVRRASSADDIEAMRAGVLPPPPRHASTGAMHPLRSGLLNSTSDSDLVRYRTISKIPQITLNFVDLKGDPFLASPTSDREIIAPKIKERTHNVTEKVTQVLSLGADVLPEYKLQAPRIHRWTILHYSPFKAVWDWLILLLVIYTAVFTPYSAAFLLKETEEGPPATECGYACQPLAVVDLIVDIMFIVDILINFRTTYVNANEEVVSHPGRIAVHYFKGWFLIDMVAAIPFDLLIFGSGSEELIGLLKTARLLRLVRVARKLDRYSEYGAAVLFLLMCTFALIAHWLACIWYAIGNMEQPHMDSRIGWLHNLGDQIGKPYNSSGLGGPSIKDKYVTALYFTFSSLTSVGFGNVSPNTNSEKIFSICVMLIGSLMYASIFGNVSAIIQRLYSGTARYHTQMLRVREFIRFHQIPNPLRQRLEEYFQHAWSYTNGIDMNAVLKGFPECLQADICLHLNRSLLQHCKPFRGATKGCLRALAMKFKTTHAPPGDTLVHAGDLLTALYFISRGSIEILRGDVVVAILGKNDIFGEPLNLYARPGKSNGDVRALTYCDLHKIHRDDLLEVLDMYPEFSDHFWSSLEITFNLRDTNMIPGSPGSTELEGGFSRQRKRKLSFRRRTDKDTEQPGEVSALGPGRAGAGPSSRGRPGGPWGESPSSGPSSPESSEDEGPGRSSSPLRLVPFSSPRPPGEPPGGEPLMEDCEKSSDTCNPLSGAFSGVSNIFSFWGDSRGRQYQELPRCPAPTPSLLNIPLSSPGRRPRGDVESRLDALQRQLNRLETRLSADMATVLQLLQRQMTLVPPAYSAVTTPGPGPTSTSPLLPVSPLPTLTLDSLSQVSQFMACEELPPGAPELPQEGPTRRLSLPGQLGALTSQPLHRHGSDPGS
row,Compound,"hERG current change (%, negative = inhibition) at 1uM"
1,Cc1cccc2nc(C(=O)Nc3cccc(C(=O)NC4CC4)c3)cn12,12.4%
2,O=C(NN1CCCCC1)c1ccc(COc2ccc(Cl)cc2)cc1,3.04%
3,O=C(CC1COc2ccccc2O1)NC1CCCCC1 (stereo not shown),12.4%
4,COc1cc(C(C)=O)ccc1Oc1ncccn1,13.3%
5,COc1ccc(NC(=O)CCCn2cnc3ccccc3c2=O)c(OC)c1,-2.39%
6,Cc1ccc(C(=O)NN2C(=O)C3C4c5ccccc5C(c5ccccc54)C3C2=O)cc1 (stereo not shown),3.88%
7,CC(C)CCn1c(Sc2nc3ccccc3s2)nc2c1c(=O)[nH]c(=O)n2C,6.6%
8,COc1ccc(C(=O)O)cc1S(=O)(=O)Nc1cc(Cl)ccc1N1CCOCC1,11.8%
9,O=C(CCNC(=O)Cn1ccc2ccccc2c1=O)NCCC1=CCCCC1,-18.1%
10,CN(C)c1ccc(C(CNC(=O)c2ccccc2Br)c2c[nH]c3ccccc23)cc1 (stereo not shown),7.31%
11,NCCCC[C@@H]1NC(=O)c2cc([N+](=O)[O-])cc(F)c2NCCCC[C@@H](C(N)=O)NC(=O)[C@H](CCC(N)=O)NC1=O,10.5%
12,CCc1ccc2nc(N(CCCN(C)C)C(=O)c3ccc(S(=O)(=O)N(C)C4CCCCC4)cc3)sc2c1.Cl,9.37%
13,O=C(Nc1ccc(S(=O)(=O)Nc2ncccn2)cc1)c1cnc(Cl)c(Cl)c1,8.48%
14,NC(=O)NC(CC(=O)NNC(=O)c1ccccn1)c1ccccc1Cl (stereo not shown),6.66%
15,O=C(CCSCc1ccccc1Cl)NCc1ccco1,27.8%
16,CN1CCN(S(=O)(=O)c2ccc(N3CCc4ccccc4C3)nc2)CC1,15.3%
17,COCCCNc1nc2c(-c3cccc(C(F)(F)F)c3)nnn2c2ccccc12,0.0351%
18,O=c1/c(=C/c2ccc(O)cc2)sc2nc3cc(Br)cnc3n12,15%
19,CCN1C(=O)[C@H]2[C@@H](c3ccccc3)N3C(=O)N(c4cccc(F)c4)C(=O)[C@@]3(CC(C)C)[C@H]2C1=O,13.7%
20,Cc1ccc(Nc2nc3c(c(=O)[nH]2)CCCC3)cc1,0.195%
21,Cc1nn(Cc2ccc([N+](=O)[O-])cc2)c(=O)n1N(C)c1ncc(C(F)(F)F)cc1Cl,4.87%
22,CCOC(=O)NC1c2ccccc2Oc2ccccc21,2.59%

row,Compound,"hERG current change (%, negative = inhibition) at 1uM"
1,Nc1nonc1-n1nnc(C(=O)N/N=C/c2ccccc2Br)c1CN1CCCC1,13.3%
2,CCCNC(=S)N1CCC(NC(=O)c2ccc(OC)cc2)CC1,6.64%
3,CC(=O)Nc1ccc(S(=O)(=O)n2cnc3cc(C)c(C)cc32)cc1,13.3%
4,O=C1ON=C(c2ccccc2)/C1=C/c1ccccc1,10.9%
5,O=C(COC(=O)c1ccc(N2CCCC2=O)cc1)NCc1ccco1,3.17%
6,COc1ccc(C(CNC(=O)c2cccc(NC(=O)c3cccs3)c2)N2CCCC2)cc1 (stereo not shown),-35.9%
7,CCCCNC(=O)CCNS(=O)(=O)c1ccc(C)cc1,6.65%
8,Cc1ccc(N2C(=O)NC(=O)/C(=C\c3cc(C)n(-c4ccc(C(=O)O)cc4)c3C)C2=O)cc1,21.7%
9,CCC(C)C(NC(=O)OC(C)(C)C)C(=O)NC(C(=O)N1CCCC1C(N)=O)C(C)CC (stereo not drawn) (Boc-Ile-Ile-Pro-NH2; configuration not given here),15.5%
10,CCOC(=O)Cn1c(=O)oc2cc(S(=O)(=O)Nc3cccc(C)c3)ccc21,1.47%
11,COc1cccc(N(CC(=O)NC2CCCC2)C(=O)Cn2nnc(-c3ccc(C)o3)n2)c1,8.31%
12,CC(C)(C)c1ccc(OCC(=O)N(Cc2cccs2)C2CCS(=O)(=O)C2)cc1 (stereo not shown),2.59%
13,CCOC(=O)c1c(C)[nH]c(C)c1C(=O)COC(=O)c1cc2ccccc2cc1O,16.1%
14,Cc1ccc(C(=O)NCCn2cc(SCC(=O)Nc3nnc(C)s3)c3ccccc32)cc1,3.12%
15,O=C(NCCCN1CCOCC1)C1CCN(S(=O)(=O)c2cccc(Cl)c2Cl)CC1,13.5%
16,Cc1ccccc1S(=O)(=O)Cc1ccc(C(=O)NCCCN2CCCC2)o1,9.11%
17,Cc1ccn(CC(=O)N2CCCC(Nc3ccc(F)c(F)c3)C2)n1 (stereo not shown),2.97%
18,CC(=O)N1c2c(cc(Br)cc2S(=O)(=O)Nc2c(C)n(C)n(-c3ccccc3)c2=O)CC1C (stereo not shown),11.5%
19,CCOC(=O)C(Cc1ccc(O)cc1)NC(=O)CNC(=O)C(CC(C)C)NC(=O)OC(C)(C)C (stereo not drawn) (Boc-Leu-Gly-Tyr-OEt; configuration not given here),3.35%
20,N#Cc1c(SCC(=O)N2CCCCC2)nsc1SCC(=O)N1CCCCC1,17.5%
21,CC(C)NC(=O)C(=O)NCC(c1ccc2c(c1)OCO2)N1CCOCC1 (stereo not shown),13.4%
22,CC(C)(C)c1ccc(/C=N/N2C(=O)CSC2=S)cc1,16.4%

row,Compound,"hERG current change (%, negative = inhibition) at 1uM"
1,CCCN1CCC(NC(=O)C2CCN(C(C)=O)CC2)CC1,10.9%
2,CC1CCCC(C)N1C(=O)CNCc1ccc2c(c1)OCO2.O=C(O)C(=O)O (stereo not shown),13%
3,CCSc1ccccc1C(=O)NCCCn1ccnc1,15.9%
4,COC(=O)C1=C(C)NC(=O)/C1=C\c1cc(C)n(-c2ccccc2F)c1C,2.89%
5,Cc1cc(-c2nnc3n2CCCCC3)c(C)n1-c1ccccc1,3.35%
6,COc1ccc(S(=O)(=O)N2CCCCCC2)cc1NC(=O)Cc1cc(OC)c(OC)c(OC)c1,10.7%
7,Cc1ccc(NC2=NCC(=O)N2c2ccc3c(c2)OCCO3)c(C)c1,13.1%
8,C/C(=C\C(=O)c1ccc(C)o1)Nc1ccc2c(c1)OCO2,14.6%
9,CCOC(=O)Cc1csc(NC(=O)Cn2cnc3c2c(=O)n(C)c(=O)n3C)n1,10.1%
10,CCNC(=S)N1CC(C)OC(C)C1 (stereo not shown),9.43%
11,S=P(Nn1cnnc1)(c1ccccc1)c1ccccc1,11.4%
12,CSc1ccccc1NC(=O)c1ccoc1C,-6.56%
13,COc1ccc(C2C(C#N)=C(N)OC(C(C)(C)C)=C2C#N)cc1OC (stereo not shown),-23.3%
14,CCCN(c1ccc(C(C)C)cc1)S(=O)(=O)c1c(C)noc1C,14%
15,COc1ccc(CCn2c(O)c(C=NCCCn3ccnc3)c(=O)[nH]c2=O)cc1OC,14.1%
16,O=C(NCCCN1CCOCC1)c1cc(-c2ccc(F)cc2)no1,-1.56%
17,O=C1N(c2cccc(Cl)c2)C(c2ccc(Cl)cc2)N2CCCN12 (stereo not shown),12.5%
18,CO/N=C/C=C1/N(C)c2ccccc2C1(C)C,12.5%
19,Cc1ccc(-c2csc(NC(=O)C3CCN(S(=O)(=O)c4cccs4)CC3)n2)cc1,12.8%
20,COc1ccc2cc1Oc1ccc(cc1)C[C@H]1c3cc(c(OC)cc3CCN1C)Oc1c(O)c(OC)cc3c1[C@H](C2)N(C)CC3,-10.8%
21,Cc1cccc(C)c1NC(=O)NN(C(=O)c1ccccc1)C(C)(C)C,4.55%
22,NC(=O)CCc1c[nH]c2ccccc12,12.2%

row,Compound,"hERG current change (%, negative = inhibition) at 1uM"
1,CC(C)C(=O)Nc1nnc(COc2ccc(Cl)cc2)s1,13.6%
2,CC(C)=CCc1c(O)cc(O)c2c1OC(c1ccc(O)cc1)CC2=O (stereo not shown),12.7%
3,O=C1CN(S(=O)(=O)c2cc(C(F)(F)F)ccc2Cl)CCN1,-3.47%
4,COc1cc(/C=N/NC(=O)c2ccoc2C)ccc1O,13.3%
5,CN(C)C(CNC(=O)c1ccc(NS(=O)(=O)c2cccc([N+](=O)[O-])c2)cc1)c1ccco1 (stereo not shown),7.44%
6,COc1cc(O)cc2c1C(=O)O[C@@H](C)CCCC(=O)CCCCC2,-3.14%
7,COc1ccc(CN(CCO)CCO)cc1[N+](=O)[O-].Cl,14.7%
8,COc1ccccc1-c1nc(SCC(=O)N2CCC(C(N)=O)CC2)n[nH]1,15.3%
9,N=c1c(C(=O)NCC2CCCO2)cc2c(=O)n3ccccc3nc2n1Cc1ccc(Cl)cc1 (stereo not shown),-81.9%
10,O=C(Nc1cccc(-c2csc(Nc3ccc(Cl)cc3)n2)c1)c1ccccc1,9.26%
11,FC(F)(F)c1ccccc1/C=N/n1c(C2CCCCC2)n[nH]c1=S,12.9%
12,NC(=O)Nc1ccc(Nc2ccccc2)cc1,2.74%
13,CCN(CC)C(=O)Cn1cnc([N+](=O)[O-])n1,13.1%
14,COc1cc(OC)cc(-n2nc(C(=O)N3CC(C)CC(C)C3)c3ccccc3c2=O)c1 (stereo not shown),-7.62%
15,CC1(C)CC(=O)C=C(Nc2cc(-c3ccccc3)[nH]n2)C1,-1.2%
16,N#CCCn1cc(C(=O)Nc2ccccc2Br)c(-c2cccs2)n1,4.63%
17,CCOc1cc(/C=N/n2nnnc2N)ccc1OCc1c(C)no[n+]1[O-],6.26%
18,CC1CCc2ccc(F)cc2N1S(=O)(=O)c1cccs1 (stereo not shown),4.77%
19,Cc1oc2cc([N+](=O)[O-])c(O)c([N+](=O)[O-])c2c1C(=O)c1ccc(Br)cc1,9.88%
